Source: the supplement of paper PMC8728848
This is one part of the list.

Assays:
Test in all cases: glycan array binding signal (z-score within array); higher = stronger binding
Conditions in all cases: glycan notation: IUPAC condensed, linker removed; mutation: R74S
[1] = target: Neu5Ac(a2-6)Gal(b1-4)GlcNAc(b1-3)Gal(b1-4)GlcNAc(b1-3)GalNAc
Summary of the method: (§1)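 Columns mapping to the same glycan were averaged after glycan names were converted to IUPAC-condensed notation. The data come from 3228 arrays in the Consortium for Functional Glycomics database, limited to those with an available protein sequence. Binding is reported as a within-array Z-score averaged across arrays of one protein sequence and across linkers.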

[2] = target: Neu5Ac(a2-6)Gal(b1-4)GlcNAc(b1-3)Gal(b1-4)GlcNAc(b1-3)[Neu5Ac(a2-6)Gal(b1-4)GlcNAc(b1-3)Gal(b1-4)GlcNAc(b1-6)]GalNAc
Summary of the method: as §1

[3] = target: Neu5Ac(a2-6)Gal(b1-4)GlcNAc(b1-3)Gal(b1-4)GlcNAc(b1-6)[Gal(b1-3)]GalNAc
Summary of the method: as §1

[4] = target: Neu5Ac(a2-6)Gal(b1-4)GlcNAc(b1-3)Gal(b1-4)[Fuc(a1-3)]GlcNAc(b1-3)Gal(b1-4)[Fuc(a1-3)]GlcNAc
Summary of the method: as §1

[5] = target: Neu5Ac(a2-6)Gal(b1-4)GlcNAc(b1-3)GalNAc
Summary of the method: as §1

[6] = target: Neu5Ac(a2-6)Gal(b1-4)GlcNAc(b1-3)[Neu5Ac(a2-6)Gal(b1-4)GlcNAc(b1-6)]GalNAc
Summary of the method: as §1

[7] = target: Neu5Ac(a2-6)Gal(b1-4)GlcNAc(b1-6)GalNAc
Summary of the method: as §1

[8] = target: Neu5Ac(a2-6)Gal(b1-4)GlcNAc(b1-6)[Gal(b1-3)GlcNAc(b1-3)]Gal(b1-4)Glc
Summary of the method: as §1

[9] = target: Neu5Ac(a2-6)Gal(b1-4)GlcNAc(b1-6)[Gal(b1-3)]GalNAc
Summary of the method: as §1

[10] = target: Neu5Ac(a2-6)Gal(b1-4)GlcNAc6S
Summary of the method: as §1

Neu5Ac(a2-6)GalNAc = target: Neu5Ac(a2-6)GalNAc
Summary of the method: as §1

[11] = target: Neu5Ac(a2-6)GalNAc(b1-4)GlcNAc
Summary of the method: as §1

[12] = target: Neu5Ac(a2-6)GalNAc(b1-4)GlcNAc6S
Summary of the method: as §1

[13] = target: Neu5Ac(a2-6)GlcNAc(b1-4)GlcNAc
Summary of the method: as §1

[14] = target: Neu5Ac(a2-6)GlcNAc(b1-4)GlcNAc(b1-4)GlcNAc
Summary of the method: as §1

Neu5Ac(a2-8)Neu5Ac = target: Neu5Ac(a2-8)Neu5Ac
Summary of the method: as §1

[15] = target: Neu5Ac(a2-8)Neu5Ac(a2-3)Gal(b1-3)GalNAc(b1-4)[Neu5Ac(a2-3)]Gal(b1-4)Glc
Summary of the method: as §1

[16] = target: Neu5Ac(a2-8)Neu5Ac(a2-3)Gal(b1-3)GalNAc(b1-4)[Neu5Ac(a2-8)Neu5Ac(a2-3)]Gal(b1-4)Glc
Summary of the method: as §1

[17] = target: Neu5Ac(a2-8)Neu5Ac(a2-3)Gal(b1-4)Glc
Summary of the method: as §1

[18] = target: Neu5Ac(a2-8)Neu5Ac(a2-3)Gal(b1-4)GlcNAc
Summary of the method: as §1

[19] = target: Neu5Ac(a2-8)Neu5Ac(a2-3)[Gal(b1-3)GalNAc(b1-4)]Gal(b1-4)Glc
Summary of the method: as §1

[20] = target: Neu5Ac(a2-8)Neu5Ac(a2-3)[GalNAc(b1-4)]Gal(b1-4)Glc
Summary of the method: as §1

[21] = target: Neu5Ac(a2-8)Neu5Ac(a2-8)Neu5Ac
Summary of the method: as §1

[22] = target: Neu5Ac(a2-8)Neu5Ac(a2-8)Neu5Ac(a2-3)Gal(b1-4)Glc
Summary of the method: as §1

[23] = target: Neu5Ac(a2-8)Neu5Ac(a2-8)Neu5Ac(a2-3)[Gal(b1-3)GalNAc(b1-4)]Gal(b1-4)Glc
Summary of the method: as §1

[24] = target: Neu5Ac(a2-8)Neu5Ac(a2-8)Neu5Ac(a2-3)[GalNAc(b1-4)]Gal(b1-4)Glc
Summary of the method: as §1

[25] = target: Neu5Ac(a2-8)Neu5Ac(a2-8)Neu5Ac(a2-8)Neu5Ac(a2-3)[GalNAc(b1-4)]Gal(b1-4)Glc
Summary of the method: as §1

[26] = target: Neu5Ac(a2-8)Neu5Gc(a2-3)Gal(b1-4)GlcNAc
Summary of the method: as §1

[27] = target: Neu5Ac(b2-6)Gal(b1-4)GlcNAc
Summary of the method: as §1

Neu5Ac(b2-6)GalNAc = target: Neu5Ac(b2-6)GalNAc
Summary of the method: as §1

[28] = target: Neu5Ac9Ac(a2-3)Gal(b1-3)GlcNAc
Summary of the method: as §1

[29] = target: Neu5Ac9Ac(a2-3)Gal(b1-4)GlcNAc
Summary of the method: as §1

[30] = target: Neu5Ac9Ac(a2-6)Gal(b1-4)GlcNAc
Summary of the method: as §1

[31] = target: Neu5Gc(a2-3)Gal(b1-3)GlcNAc
Summary of the method: as §1

[32] = target: Neu5Gc(a2-3)Gal(b1-3)[Fuc(a1-4)]GlcNAc
Summary of the method: as §1

Neu5Gc(a2-3)Gal(b1-4)Glc = target: Neu5Gc(a2-3)Gal(b1-4)Glc
Summary of the method: as §1

[33] = target: Neu5Gc(a2-3)Gal(b1-4)GlcNAc
Summary of the method: as §1

[34] = target: Neu5Gc(a2-3)Gal(b1-4)GlcNAc(b1-3)Gal(b1-4)GlcNAc(b1-2)Man(a1-3)[Neu5Gc(a2-3)Gal(b1-4)GlcNAc(b1-3)Gal(b1-4)GlcNAc(b1-2)Man(a1-6)]Man(b1-4)GlcNAc(b1-4)GlcNAc
Summary of the method: as §1

[35] = target: Neu5Gc(a2-3)Gal(b1-4)[Fuc(a1-3)]GlcNAc
Summary of the method: as §1

[36] = target: Neu5Gc(a2-6)Gal(b1-4)GlcNAc
Summary of the method: as §1

Neu5Gc(a2-6)GalNAc = target: Neu5Gc(a2-6)GalNAc
Summary of the method: as §1

[37] = target: Neu5Gc(a2-8)Neu5Ac(a2-3)Gal(b1-4)GlcNAc
Summary of the method: as §1

[38] = target: Neu5Gc(a2-8)Neu5Gc(a2-3)Gal(b1-4)GlcNAc
Summary of the method: as §1

[39] = target: Neu5Gc(a2-8)Neu5Gc(a2-3)Gal(b1-4)GlcNAc(b1-3)Gal(b1-4)GlcNAc
Summary of the method: as §1

[40] = target: Neu5Gc(a2-8)Neu5Gc(a2-6)Gal(b1-4)GlcNAc
Summary of the method: as §1

[41] = target: Neu5Gc(b2-6)Gal(b1-4)GlcNAc
Summary of the method: as §1

B1: Gal 7 (Homo sapiens) (protein)
chain: MSNVPHKSSLPEGIRPGTVLRIRGLVPPNASRFHVNLLCGEEGGSDAALHFNPRLDTSEVVFNSKEGGSWGREESGPGVPFGRGQPFEVLIIASDDGFKAVVGDAQYHHFRHRLPLARVRLVEVGGDVQLDSVRIF
Which “glycan array binding signal (z-score)” value [1] does the source give for B1 here?
Its value is -0.31.

And the “glycan array binding signal (z-score)” value [2]?
The value was -0.005.

What about the “glycan array binding signal (z-score)” value [3] of the same binder?
Its value is -0.481.

What about the “glycan array binding signal (z-score)” value [4] of the same binder?
The value was -0.111.

What about the “glycan array binding signal (z-score)” value [5] of the same binder?
The value was -0.378.

What about the “glycan array binding signal (z-score)” value [6] of the same binder?
Its value is -0.368.

What about the “glycan array binding signal (z-score)” value [7] of the same binder?
The value was -0.213.

What about the “glycan array binding signal (z-score)” value [8] of the same binder?
The value was -0.239.

What about the “glycan array binding signal (z-score)” value [9] of the same binder?
Its value is -0.433.

What about the “glycan array binding signal (z-score)” value [10] of the same binder?
The value was -0.194.

And the “glycan array binding signal (z-score)” value (Neu5Ac(a2-6)GalNAc)?
Its value is -0.343.

What about the “glycan array binding signal (z-score)” value [11] of the same binder?
Its value is -0.703.

What about the “glycan array binding signal (z-score)” value [12] of the same binder?
The value was -0.203.

What about the “glycan array binding signal (z-score)” value [13] of the same binder?
The value was -0.42.

What about the “glycan array binding signal (z-score)” value [14] of the same binder?
The value was -0.32.

And the “glycan array binding signal (z-score)” value (Neu5Ac(a2-8)Neu5Ac)?
Its value is -0.502.

What about the “glycan array binding signal (z-score)” value [15] of the same binder?
The value was -0.193.

What about the “glycan array binding signal (z-score)” value [16] of the same binder?
Its value is 1.84.

What about the “glycan array binding signal (z-score)” value [17] of the same binder?
Its value is -0.342.

And the “glycan array binding signal (z-score)” value [18]?
The value was -0.636.

And the “glycan array binding signal (z-score)” value [19]?
Its value is -0.236.

What about the “glycan array binding signal (z-score)” value [20] of the same binder?
Its value is -0.695.

And the “glycan array binding signal (z-score)” value [21]?
Its value is -0.378.

What about the “glycan array binding signal (z-score)” value [22] of the same binder?
The value was -0.411.

And the “glycan array binding signal (z-score)” value [23]?
Its value is 0.564.

And the “glycan array binding signal (z-score)” value [24]?
The value was -0.517.

What about the “glycan array binding signal (z-score)” value [25] of the same binder?
The value was -0.4.

And the “glycan array binding signal (z-score)” value [26]?
Its value is -0.492.

What about the “glycan array binding signal (z-score)” value [27] of the same binder?
The value was -0.507.

And the “glycan array binding signal (z-score)” value (Neu5Ac(b2-6)GalNAc)?
The value was -0.701.

And the “glycan array binding signal (z-score)” value [28]?
The value was -0.649.

What about the “glycan array binding signal (z-score)” value [29] of the same binder?
Its value is -0.498.

And the “glycan array binding signal (z-score)” value [30]?
The value was -0.336.

And the “glycan array binding signal (z-score)” value [31]?
Its value is -0.382.

What about the “glycan array binding signal (z-score)” value [32] of the same binder?
Its value is -0.076.

And the “glycan array binding signal (z-score)” value (Neu5Gc(a2-3)Gal(b1-4)Glc)?
The value was 0.977.

What about the “glycan array binding signal (z-score)” value [33] of the same binder?
Its value is -0.4.

And the “glycan array binding signal (z-score)” value [34]?
The value was 1.39.

What about the “glycan array binding signal (z-score)” value [35] of the same binder?
The value was -0.084.

What about the “glycan array binding signal (z-score)” value [36] of the same binder?
The value was -0.402.

What about the “glycan array binding signal (z-score)” value (Neu5Gc(a2-6)GalNAc) of the same binder?
The value was -0.437.

And the “glycan array binding signal (z-score)” value [37]?
Its value is -0.641.

And the “glycan array binding signal (z-score)” value [38]?
The value was -0.512.

What about the “glycan array binding signal (z-score)” value [39] of the same binder?
Its value is -0.572.

And the “glycan array binding signal (z-score)” value [40]?
Its value is -0.589.

And the “glycan array binding signal (z-score)” value [41]?
Its value is 0.169.
